Data reported in publication PMC4336329 (PLoS ONE, 2015).
Among all 310,000 compounds or so, about 2,200 (0.71%) showed an effect of 50% or more. The effect is printed as a negative number. This is one part of the list.

These compounds were tested against human ether-à-go-go-related gene (hERG) potassium channel (human, UniProt Q12809) (assay: primary screen, population patch clamp on CHO cells stably expressing hERG).
Chain of human ether-à-go-go-related gene (hERG) potassium channel (Q12809 whole entry, looked up): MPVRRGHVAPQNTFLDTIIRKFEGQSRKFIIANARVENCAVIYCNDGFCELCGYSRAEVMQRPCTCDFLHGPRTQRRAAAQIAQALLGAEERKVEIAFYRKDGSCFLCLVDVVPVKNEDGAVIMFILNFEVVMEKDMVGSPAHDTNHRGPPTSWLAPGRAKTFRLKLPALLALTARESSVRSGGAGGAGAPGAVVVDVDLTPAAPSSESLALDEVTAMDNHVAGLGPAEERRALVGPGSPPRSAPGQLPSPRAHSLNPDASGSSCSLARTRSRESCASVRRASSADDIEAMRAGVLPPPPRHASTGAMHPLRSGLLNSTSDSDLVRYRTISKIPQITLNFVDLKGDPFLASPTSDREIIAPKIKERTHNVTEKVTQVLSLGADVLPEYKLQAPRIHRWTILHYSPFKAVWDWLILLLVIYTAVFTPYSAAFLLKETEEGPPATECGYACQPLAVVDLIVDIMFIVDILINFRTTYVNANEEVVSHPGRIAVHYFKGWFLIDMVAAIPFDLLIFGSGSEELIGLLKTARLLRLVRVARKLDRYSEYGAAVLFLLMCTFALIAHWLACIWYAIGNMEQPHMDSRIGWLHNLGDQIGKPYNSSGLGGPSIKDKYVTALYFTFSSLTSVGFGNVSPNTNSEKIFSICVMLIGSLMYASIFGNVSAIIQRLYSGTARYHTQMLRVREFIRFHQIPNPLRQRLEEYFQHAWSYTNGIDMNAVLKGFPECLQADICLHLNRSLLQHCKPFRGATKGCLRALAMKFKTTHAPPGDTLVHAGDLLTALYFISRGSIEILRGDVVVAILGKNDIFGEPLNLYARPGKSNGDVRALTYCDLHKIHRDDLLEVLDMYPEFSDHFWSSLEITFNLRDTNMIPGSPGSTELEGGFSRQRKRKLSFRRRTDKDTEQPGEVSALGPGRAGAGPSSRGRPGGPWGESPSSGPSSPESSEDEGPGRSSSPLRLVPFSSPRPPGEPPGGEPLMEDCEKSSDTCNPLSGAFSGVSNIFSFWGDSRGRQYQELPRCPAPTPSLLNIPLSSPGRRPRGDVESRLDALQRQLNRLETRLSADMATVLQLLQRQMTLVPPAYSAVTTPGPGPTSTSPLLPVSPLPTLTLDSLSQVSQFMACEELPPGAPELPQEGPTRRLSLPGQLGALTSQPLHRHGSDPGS

SMILES	hERG current change (%, negative = inhibition) at 1uM
CC(=O)c1ccc(OCC(C)Oc2ccc(C#N)cc2)cc1 (stereo not drawn)	1.45%
CCOc1ccc(OCC)c(NC(=O)CNS(=O)(=O)c2cccs2)c1	7.48%
CCN(CC(=O)Nc1ccccc1C(F)(F)F)C(=O)CCc1nc2ccccc2c(=O)[nH]1	11.6%
COc1ccc(NC(=O)/C(C#N)=C/c2ncc([N+](=O)[O-])n2C)c(OC)c1	9.55%
O=[N+]([O-])c1ccccc1/C=N/n1c(C2CCCCC2)n[nH]c1=S	-3.78%
CCNC(=O)C(=O)NCC(c1cccs1)S(=O)(=O)c1ccc(C)cc1 (stereo not drawn)	9.52%
O=C(N/N=C/c1ccccc1)c1ccc(NC(=O)c2ccc(F)cc2)cc1	10.7%
CN(C)N=Nc1ccc(-c2cn(Cc3ccccc3)cn2)cc1	10.9%
O=Cc1c(OCc2ccccc2)ccc2ccccc12	13.5%
O=C(CSc1nnc(-c2ccc(Br)cc2)o1)Nc1cccc2ccccc12	1.45%
c1ccc(NC2=NCCN2CCC2CCCC2)cc1	-7.24%
COc1ccc2cc(C(c3nnnn3C(C)(C)C)N3CCSCC3)c(=O)[nH]c2c1 (stereo not drawn)	6.18%
Cn1c(=O)n(C)c2cc([N+](=O)[O-])c(N3CCN(C(=O)c4cccc(F)c4)CC3)cc21	-7.87%
COc1cc(C(=O)Nc2ccc(NC(=O)c3ccccc3Cl)nc2)cc(OC)c1OC	10.9%
CN1CCC(N(C)C(=O)c2cccc(S(=O)(=O)N3CCOCC3)c2)CC1.Cl	14.4%
Cc1ccc(N(C)C(=O)c2cc(S(=O)(=O)N3CCCCC3)c[nH]2)cc1	10.8%
CCC1CCCCN1C(=O)CSc1nnc2nc(C)cc(C)n12 (stereo not drawn)	8.62%
O=C(CCCSc1nc2ccccc2[nH]1)N1CCN(c2ccccc2)CC1	-32.8%
O=C(Cc1ccc(Cl)cc1)Nc1ccc(Br)cn1	14%
CC(Sc1nnc(CN2CCCC2)n1Cc1ccccc1)C(=O)Nc1ccccc1 (stereo not drawn)	-25.1%
CCN(CC)CC(=O)n1c2c(c3ccccc31)CCCC2	-5.57%
COc1ccc(CNC(=O)COc2cc(O)c3c(c2)OC(C)(C)CC3=O)c(OC)c1	-3.43%
CCC(=O)N1CCNC(=O)C1CC(=O)Nc1ccc(C)c(Cl)c1 (stereo not drawn)	-0.756%

SMILES	hERG current change (%, negative = inhibition) at 1uM
O=C(CCC1=NS(=O)(=O)c2ccccc2N1)NC1CCCCCCC1	19.7%
CC(C)n1cnc2c(Nc3cccc(Cl)c3)nc(N(CCO)CCCO)nc21	1.73%
CCOC(=O)C1CCCN(c2ncnc3c2cnn3-c2ccc(OC)cc2)C1 (stereo not drawn)	-3.74%
S=C1NC[C@H](c2ccccc2)N1CCCCC1CCCCC1	12.9%
COC(=O)c1ccc(OCC(O)CN2CCOCC2)cc1 (stereo not drawn)	12.2%
C/C(CCS(=O)(=O)c1ccccc1)=N/O	12.5%
CC(CNS(=O)(=O)c1cc(Cl)ccc1Cl)CN(C)C (stereo not drawn)	16.3%
O=C(Cn1nc(-c2ccccc2)ccc1=O)NCc1ccc(F)cc1	2.01%
COC(=O)CNC(=O)CSc1nc(N)cc(=O)[nH]1	10.3%
CCOc1ccc(-n2cc(-c3ccc(OC)c(OC)c3)[nH]c2=S)cc1	10.3%
O=C(c1ccc(F)cc1F)N1CCCC(c2nc(-c3ccc(F)cc3)no2)C1 (stereo not drawn)	7.75%
Cc1ccccc1N1CC(C(=O)Nc2nnc(SCc3ccccn3)s2)CC1=O (stereo not drawn)	11.8%
CCCNC(=O)c1cccc(Cn2cc(Br)c([N+](=O)[O-])n2)c1	6.4%
O=C(CC1SCCNC1=O)Nc1cccc(C(F)(F)F)c1 (stereo not drawn)	-3.68%
CN(C)C(=O)CSc1nnc(Cc2ccccc2)n1Cc1ccco1	9.15%
COC(=O)C1=C(C)N(C)C(=O)NC1c1ccsc1 (stereo not drawn)	14.2%
N#CC1=C(N)c2ccccc2CC12CCCCC2	11.9%
COc1ccc(C(=O)n2nc(-c3ccccc3)nc2N)cc1OC	15.7%
O=C(CCc1nc2sc3c(c2c(=O)[nH]1)CCCC3)N1CCN(c2ccccc2)CC1	2.09%
COc1ccc(OC)c(-n2nnnc2SCC(=O)NCCc2ccccc2)c1	0.177%
CNS(=O)(=O)c1cccc2cccnc12	13.5%
CC(=O)N1CCc2cc(S(=O)(=O)CCC(=O)NCc3ccc(C)o3)ccc21	27.5%
